Some of the results follow. The energies were worked out here from pooled read counts, against the library average; single values are noisy.
molecular target: T1, Pho4 (S. cerevisiae) (UniProt P07270); assay: relative binding free energy (BET-seq); higher = weaker binding; settings: reference: library average
T1 sequence: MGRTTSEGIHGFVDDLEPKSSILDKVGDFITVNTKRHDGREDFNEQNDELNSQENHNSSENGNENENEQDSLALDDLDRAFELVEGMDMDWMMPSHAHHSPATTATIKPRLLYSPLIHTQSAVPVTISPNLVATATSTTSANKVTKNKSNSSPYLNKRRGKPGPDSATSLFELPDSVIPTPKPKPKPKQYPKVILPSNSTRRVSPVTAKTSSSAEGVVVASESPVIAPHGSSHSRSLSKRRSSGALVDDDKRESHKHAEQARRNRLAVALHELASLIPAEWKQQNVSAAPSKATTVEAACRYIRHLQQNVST

| Sequence | relative binding free energy |
| --- | --- |
| GGATACACGTGGTTGA | 0 kcal/mol |
| TTTTACACGTGAGCGG | 0.32 kcal/mol |
| GGGAGCACGTGGGGTT | -0.23 kcal/mol |
| ATCTTCACGTGGGCGG | 0.05 kcal/mol |
| GCGTGCACGTGGTGAG | -0.09 kcal/mol |
| CTTGTCACGTGGGTCG | -0.1 kcal/mol |
| CGAAGCACGTGGTGGT | -0.26 kcal/mol |
| TACAACACGTGGGGTG | -0.21 kcal/mol |
| TCATACACGTGGTTTA | -0.06 kcal/mol |
| GAGTGCACGTGTTCGG | -0.12 kcal/mol |
| AGTAACACGTGCGTTT | 0.03 kcal/mol |
| GGGTGCACGTGGAAGG | 0.17 kcal/mol |
| GTGGCCACGTGTATGT | -0.06 kcal/mol |
| GTAGGCACGTGATGGC | 0 kcal/mol |
| TTTTCCACGTGCTGTT | 0.07 kcal/mol |
| GTGGTCACGTGACGGA | 0.19 kcal/mol |
| GGGGTCACGTGGCGAT | 0.07 kcal/mol |
| AGGTGCACGTGAAATG | 0.22 kcal/mol |
| TAAGGCACGTGGTGCG | -0.17 kcal/mol |
| AGTAACACGTGTCGTT | 0 kcal/mol |
| GTAAGCACGTGCTTTA | 0.05 kcal/mol |
| TCTTGCACGTGTCGTG | 0.08 kcal/mol |
| TAGTACACGTGGGATG | -0.01 kcal/mol |
| ACTTGCACGTGAGTGG | 0.15 kcal/mol |
| TTAGTCACGTGAATAT | 0.28 kcal/mol |

| Sequence | relative binding free energy |
| --- | --- |
| TCTGACACGTGGATGG | 0.02 kcal/mol |
| ATTCACACGTGGTGTT | -0.1 kcal/mol |
| GTTCACACGTGGATGA | 0.24 kcal/mol |
| AAATGCACGTGAGGTT | 0.26 kcal/mol |
| TAAAGCACGTGATGTT | 0.08 kcal/mol |
| ATGTTCACGTGCTTGT | 0.19 kcal/mol |
| ATTGGCACGTGTCTAG | -0.04 kcal/mol |
| GGTAGCACGTGTGTTT | 0 kcal/mol |
| TAGTGCACGTGTATGC | -0.08 kcal/mol |
| GCAGACACGTGGGGTA | -0.12 kcal/mol |
| GGGTACACGTGCGAGT | 0.09 kcal/mol |
| TGTGGCACGTGTGGTT | 0 kcal/mol |
| GGGAACACGTGTTGTA | 0 kcal/mol |
| TTTTACACGTGAGAGT | 0.27 kcal/mol |
| TCTTTCACGTGGTGTA | 0.19 kcal/mol |
| AGTGTCACGTGGATTG | -0.02 kcal/mol |
| GATTTCACGTGGGCGT | 0.34 kcal/mol |
| GGCTTCACGTGTAGGG | 0.25 kcal/mol |
| ATTCGCACGTGTGTGG | 0.01 kcal/mol |
| TGGTTCACGTGTGACT | 0.32 kcal/mol |
| TACGTCACGTGAGGGG | 0.38 kcal/mol |
| GTGTTCACGTGCGGTC | 0.35 kcal/mol |
| TCGGTCACGTGTATCG | 0.14 kcal/mol |
| TTCGGCACGTGATTAG | -0.1 kcal/mol |
| TCTTTCACGTGTTACT | 0.26 kcal/mol |

| Sequence | relative binding free energy |
| --- | --- |
| GTCGGCACGTGTTTAT | 0.14 kcal/mol |
| AGATCCACGTGTGGAT | 0.23 kcal/mol |
| CTTGCCACGTGGGGTT | -0.38 kcal/mol |
| CTTGACACGTGGGTTG | -0.14 kcal/mol |
| GGCATCACGTGGGTAT | 0.1 kcal/mol |
| GAGTACACGTGGTTTT | 0.07 kcal/mol |
| TGGATCACGTGTCAGG | 0.21 kcal/mol |
| TTTATCACGTGCTGTA | 0.14 kcal/mol |
| GGGGGCACGTGTTGGC | 0.03 kcal/mol |
| AGTAGCACGTGCGGGG | -0.09 kcal/mol |
| ACTGTCACGTGGTCGG | 0.03 kcal/mol |
| TTAATCACGTGTTCGT | 0.17 kcal/mol |
| AATAGCACGTGTCGGT | -0.04 kcal/mol |
| CTGTTCACGTGGGAGG | 0.19 kcal/mol |
| CGCGGCACGTGTCGGT | -0.05 kcal/mol |
| AGTTGCACGTGAGGCT | 0.16 kcal/mol |
| GTGAACACGTGTTAGG | -0.05 kcal/mol |
| CTGTACACGTGGGCGG | -0.14 kcal/mol |
| TAATGCACGTGAGGCT | 0.15 kcal/mol |
| AAAGGCACGTGTTAGG | -0.05 kcal/mol |
| TAGGTCACGTGCGGTA | 0.01 kcal/mol |
| TTTGTCACGTGGTGGA | 0.11 kcal/mol |
| TTGGTCACGTGCTGTG | 0.05 kcal/mol |
| TGTCCCACGTGTAGGT | 0.02 kcal/mol |
| AGTTCCACGTGTGAGG | -0.04 kcal/mol |

| Sequence | relative binding free energy |
| --- | --- |
| TAAGTCACGTGGGTGC | -0.08 kcal/mol |
| ACTATCACGTGGTTGT | 0.21 kcal/mol |
| GTGATCACGTGGTATT | 0.09 kcal/mol |
| TAAGTCACGTGGGACT | -0.03 kcal/mol |
| GTGTGCACGTGAATAG | 0.35 kcal/mol |
| GCTAACACGTGTGTGG | -0.01 kcal/mol |
| GGGCCCACGTGGGTGG | -0.23 kcal/mol |
| TGTTGCACGTGGTCTG | -0.29 kcal/mol |
| TAGGGCACGTGGGTTG | -0.22 kcal/mol |
| TCAAGCACGTGTGTTT | -0.06 kcal/mol |
| TCGGTCACGTGATGGG | 0.22 kcal/mol |
| TGGTGCACGTGCGCGG | -0.17 kcal/mol |
| GACGCCACGTGTGGGT | 0.05 kcal/mol |
| CTCGTCACGTGTTAGT | 0.08 kcal/mol |
| GGGGACACGTGTATAA | 0.11 kcal/mol |
| ATGAGCACGTGTGCAT | -0.05 kcal/mol |
| TGAGACACGTGGAGGA | -0.03 kcal/mol |
| TGGTGCACGTGGGCGG | -0.15 kcal/mol |
| AATGACACGTGGGTGG | -0.03 kcal/mol |
| TGGGACACGTGGGGTG | -0.07 kcal/mol |
| GCATTCACGTGGTGTG | 0.16 kcal/mol |
| TCGTGCACGTGGTTCG | -0.15 kcal/mol |
| GGTTGCACGTGCGCGG | -0.01 kcal/mol |
| AGAGGCACGTGGTCTG | -0.19 kcal/mol |
| GGTTTCACGTGGAGCG | 0.45 kcal/mol |

| Sequence | relative binding free energy |
| --- | --- |
| TTATACACGTGTCAGT | -0.08 kcal/mol |
| GTGGCCACGTGTCTTG | 0.02 kcal/mol |
| TGTGTCACGTGCTGTG | -0.01 kcal/mol |
| ATGTTCACGTGATCGT | 0.18 kcal/mol |
| GCGGACACGTGGTTTT | 0.02 kcal/mol |
| TGGGGCACGTGCGGCT | -0.21 kcal/mol |
| GGAGGCACGTGCGTAT | -0.13 kcal/mol |
| CGATTCACGTGAGGGG | 0.3 kcal/mol |
| GTGGTCACGTGATCAG | 0.46 kcal/mol |
| AGGGGCACGTGAGACG | -0.12 kcal/mol |
| ATTTTCACGTGCGTTG | 0.21 kcal/mol |
| AGTTTCACGTGCTCGG | 0.24 kcal/mol |
| GAGGTCACGTGAGATA | 0.43 kcal/mol |
| TGCGGCACGTGGGGTA | -0.26 kcal/mol |
| GTGTACACGTGTACGT | 0.15 kcal/mol |
| TTATACACGTGGTGTG | 0.01 kcal/mol |
| TATTCCACGTGAGTTT | 0.2 kcal/mol |
| TAGCTCACGTGGGTTA | 0.15 kcal/mol |
| ATTTCCACGTGATTTG | 0.27 kcal/mol |
| TATTTCACGTGGAGCG | 0.34 kcal/mol |
| TGTAGCACGTGGTATA | -0.09 kcal/mol |
| TGTTACACGTGTAGTT | 0.1 kcal/mol |
| TATTACACGTGGAGGA | 0 kcal/mol |
| CCATGCACGTGTGTGG | -0.01 kcal/mol |
| TCTTACACGTGTTAGA | 0.19 kcal/mol |

| Sequence | relative binding free energy |
| --- | --- |
| TAGGTCACGTGCGGGC | 0.02 kcal/mol |
| ATTTTCACGTGGAGTA | 0.23 kcal/mol |
| GAATCCACGTGGGTGT | -0.03 kcal/mol |
| AGGTACACGTGTTATG | 0.04 kcal/mol |
| AGGCGCACGTGGGGTA | -0.33 kcal/mol |
| GTAGTCACGTGAATAA | 0.42 kcal/mol |
| GGCGTCACGTGGCGGA | 0.2 kcal/mol |
| GGGTCCACGTGTGGGA | 0.08 kcal/mol |
| GTGCCCACGTGTGGGG | -0.11 kcal/mol |
| TTATGCACGTGTATGT | 0 kcal/mol |
| GGATGCACGTGTGGTT | 0.12 kcal/mol |
| GGTATCACGTGGAGCG | 0.13 kcal/mol |
| CTTAGCACGTGGTGTG | -0.14 kcal/mol |
| TATTTCACGTGATTAG | 0.27 kcal/mol |
| GAGGTCACGTGAGCGG | 0.26 kcal/mol |
| TGTGGCACGTGAGTCT | 0.2 kcal/mol |
| ATACGCACGTGGGTTG | -0.15 kcal/mol |
| ATAGTCACGTGGGGTG | -0.1 kcal/mol |
| AACGTCACGTGGGTTG | 0.03 kcal/mol |
| GGCTACACGTGGGGAT | -0.07 kcal/mol |
| TTCATCACGTGGGAGG | 0.03 kcal/mol |

Source: the BET-seq Pho4 binding data (Le et al. 2018)
